In the supplement of paper PMC8728848:
The list shows a part of the results.

Tests used:
Experiment in all cases: glycan array binding signal (z-score within array); higher = stronger binding
Details in all cases: glycan notation: IUPAC condensed, linker removed; mutation: R343V
[1] = target: Neu5Ac(a2-3)Gal(b1-3)[Fuc(a1-4)]GlcNAc(b1-3)Gal(b1-4)[Fuc(a1-3)]GlcNAc
Procedure, shortened: (§1)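 Glycan array data were curated from 3228 arrays in the Consortium for Functional Glycomics database and kept only where the protein sequence was available. Glycan names were converted to IUPAC-condensed notation, and columns mapping to the same glycan were averaged. The binding signal is a within-array Z-score, averaged across arrays of the same protein sequence at different concentrations or buffers and across linkers. Negative Z-scores can be read as non-binding.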

[2] = target: Neu5Ac(a2-3)Gal(b1-3)[Neu5Ac(a2-3)Gal(b1-4)]GlcNAc
Procedure, shortened: as §1

[3] = target: Neu5Ac(a2-3)Gal(b1-3)[Neu5Ac(a2-6)]GalNAc
Procedure, shortened: as §1

Neu5Ac(a2-3)Gal(b1-4)Glc = target: Neu5Ac(a2-3)Gal(b1-4)Glc
Procedure, shortened: as §1

[4] = target: Neu5Ac(a2-3)Gal(b1-4)GlcNAc
Procedure, shortened: as §1

[5] = target: Neu5Ac(a2-3)Gal(b1-4)GlcNAc(b1-2)Man(a1-3)[GlcNAc(b1-2)Man(b1-4)GlcNAc(b1-2)Man(a1-6)]Man(b1-4)GlcNAc(b1-4)GlcNAc
Procedure, shortened: as §1

[6] = target: Neu5Ac(a2-3)Gal(b1-4)GlcNAc(b1-2)Man(a1-3)[Neu5Ac(a2-6)Gal(b1-4)GlcNAc(b1-2)Man(a1-6)]Man(b1-4)GlcNAc(b1-4)GlcNAc
Procedure, shortened: as §1

[7] = target: Neu5Ac(a2-3)Gal(b1-4)GlcNAc(b1-3)Gal(b1-3)GlcNAc
Procedure, shortened: as §1

[8] = target: Neu5Ac(a2-3)Gal(b1-4)GlcNAc(b1-3)Gal(b1-4)GlcNAc
Procedure, shortened: as §1

[9] = target: Neu5Ac(a2-3)Gal(b1-4)GlcNAc(b1-3)Gal(b1-4)GlcNAc(b1-3)Gal(b1-4)GlcNAc
Procedure, shortened: as §1

[10] = target: Neu5Ac(a2-3)Gal(b1-4)GlcNAc(b1-3)Gal(b1-4)[Fuc(a1-3)]GlcNAc
Procedure, shortened: as §1

[11] = target: Neu5Ac(a2-3)Gal(b1-4)GlcNAc(b1-6)[Gal(b1-3)]GalNAc
Procedure, shortened: as §1

[12] = target: Neu5Ac(a2-3)Gal(b1-4)GlcNAc(b1-6)[Neu5Ac(a2-3)Gal(b1-3)]GalNAc
Procedure, shortened: as §1

[13] = target: Neu5Ac(a2-3)Gal(b1-4)GlcNAc6S
Procedure, shortened: as §1

[14] = target: Neu5Ac(a2-3)Gal(b1-4)[Fuc(a1-3)]GlcNAc
Procedure, shortened: as §1

[15] = target: Neu5Ac(a2-3)Gal(b1-4)[Fuc(a1-3)]GlcNAc(b1-3)Gal
Procedure, shortened: as §1

[16] = target: Neu5Ac(a2-3)Gal(b1-4)[Fuc(a1-3)]GlcNAc(b1-3)Gal(b1-4)GlcNAc
Procedure, shortened: as §1

[17] = target: Neu5Ac(a2-3)Gal(b1-4)[Fuc(a1-3)]GlcNAc(b1-3)Gal(b1-4)[Fuc(a1-3)]GlcNAc(b1-3)Gal(b1-4)[Fuc(a1-3)]GlcNAc
Procedure, shortened: as §1

[18] = target: Neu5Ac(a2-3)Gal(b1-4)[Fuc(a1-3)]GlcNAc(b1-6)[Gal(b1-3)]GalNAc
Procedure, shortened: as §1

[19] = target: Neu5Ac(a2-3)Gal(b1-4)[Fuc(a1-3)]GlcNAc6S
Procedure, shortened: as §1

[20] = target: Neu5Ac(a2-3)Gal6S(b1-4)GlcNAc
Procedure, shortened: as §1

[21] = target: Neu5Ac(a2-3)Gal6S(b1-4)[Fuc(a1-3)]GlcNAc
Procedure, shortened: as §1

Neu5Ac(a2-3)GalNAc = target: Neu5Ac(a2-3)GalNAc
Procedure, shortened: as §1

[22] = target: Neu5Ac(a2-3)GalNAc(b1-4)GlcNAc
Procedure, shortened: as §1

[23] = target: Neu5Ac(a2-3)[GalNAc(b1-4)]Gal(b1-4)Glc
Procedure, shortened: as §1

[24] = target: Neu5Ac(a2-3)[GalNAc(b1-4)]Gal(b1-4)GlcNAc
Procedure, shortened: as §1

[25] = target: Neu5Ac(a2-3)[Neu5Ac(a2-6)]GalNAc
Procedure, shortened: as §1

Neu5Ac(a2-6)Gal = target: Neu5Ac(a2-6)Gal
Procedure, shortened: as §1

Neu5Ac(a2-6)Gal(b1-4)Glc = target: Neu5Ac(a2-6)Gal(b1-4)Glc
Procedure, shortened: as §1

[26] = target: Neu5Ac(a2-6)Gal(b1-4)GlcNAc
Procedure, shortened: as §1

[27] = target: Neu5Ac(a2-6)Gal(b1-4)GlcNAc(b1-2)Man(a1-3)[Gal(b1-4)GlcNAc(b1-2)Man(a1-6)]Man(b1-4)GlcNAc(b1-4)GlcNAc
Procedure, shortened: as §1

[28] = target: Neu5Ac(a2-6)Gal(b1-4)GlcNAc(b1-2)Man(a1-3)[GlcNAc(b1-2)Man(a1-6)]Man(b1-4)GlcNAc(b1-4)GlcNAc
Procedure, shortened: as §1

[29] = target: Neu5Ac(a2-6)Gal(b1-4)GlcNAc(b1-2)Man(a1-3)[GlcNAc(b1-2)Man(b1-4)GlcNAc(b1-2)Man(a1-6)]Man(b1-4)GlcNAc(b1-4)GlcNAc
Procedure, shortened: as §1

[30] = target: Neu5Ac(a2-6)Gal(b1-4)GlcNAc(b1-2)Man(a1-3)[Neu5Ac(a2-6)Gal(b1-4)GlcNAc(b1-2)Man(a1-6)]Man(b1-4)GlcNAc(b1-4)GlcNAc
Procedure, shortened: as §1

[31] = target: Neu5Ac(a2-6)Gal(b1-4)GlcNAc(b1-2)Man(a1-6)[Gal(b1-4)GlcNAc(b1-2)Man(a1-3)]Man(b1-4)GlcNAc(b1-4)GlcNAc
Procedure, shortened: as §1

[32] = target: Neu5Ac(a2-6)Gal(b1-4)GlcNAc(b1-2)Man(a1-6)[GlcNAc(b1-2)Man(a1-3)]Man(b1-4)GlcNAc(b1-4)GlcNAc
Procedure, shortened: as §1

[33] = target: Neu5Ac(a2-6)Gal(b1-4)GlcNAc(b1-3)Gal(b1-4)GlcNAc
Procedure, shortened: as §1

[34] = target: Neu5Ac(a2-6)Gal(b1-4)GlcNAc(b1-3)Gal(b1-4)[Fuc(a1-3)]GlcNAc(b1-3)Gal(b1-4)[Fuc(a1-3)]GlcNAc
Procedure, shortened: as §1

[35] = target: Neu5Ac(a2-6)Gal(b1-4)GlcNAc6S
Procedure, shortened: as §1

Neu5Ac(a2-6)GalNAc = target: Neu5Ac(a2-6)GalNAc
Procedure, shortened: as §1

[36] = target: Neu5Ac(a2-6)GalNAc(b1-4)GlcNAc
Procedure, shortened: as §1

Neu5Ac(a2-8)Neu5Ac = target: Neu5Ac(a2-8)Neu5Ac
Procedure, shortened: as §1

[37] = target: Neu5Ac(a2-8)Neu5Ac(a2-3)Gal(b1-4)Glc
Procedure, shortened: as §1

[38] = target: Neu5Ac(a2-8)Neu5Ac(a2-3)[GalNAc(b1-4)]Gal(b1-4)Glc
Procedure, shortened: as §1

[39] = target: Neu5Ac(a2-8)Neu5Ac(a2-8)Neu5Ac
Procedure, shortened: as §1

[40] = target: Neu5Ac(a2-8)Neu5Ac(a2-8)Neu5Ac(a2-3)Gal(b1-4)Glc
Procedure, shortened: as §1

[41] = target: Neu5Ac(a2-8)Neu5Ac(a2-8)Neu5Ac(a2-3)[GalNAc(b1-4)]Gal(b1-4)Glc
Procedure, shortened: as §1

[42] = target: Neu5Ac(a2-8)Neu5Ac(a2-8)Neu5Ac(a2-8)Neu5Ac(a2-3)[GalNAc(b1-4)]Gal(b1-4)Glc
Procedure, shortened: as §1

[43] = target: Neu5Ac(b2-6)Gal(b1-4)GlcNAc
Procedure, shortened: as §1

Neu5Ac(b2-6)GalNAc = target: Neu5Ac(b2-6)GalNAc
Procedure, shortened: as §1

[44] = target: Neu5Ac9Ac(a2-6)Gal(b1-4)GlcNAc
Procedure, shortened: as §1

[45] = target: Neu5Gc(a2-3)Gal(b1-3)GlcNAc
Procedure, shortened: as §1

[46] = target: Neu5Gc(a2-3)Gal(b1-3)[Fuc(a1-4)]GlcNAc
Procedure, shortened: as §1

Neu5Gc(a2-3)Gal(b1-4)Glc = target: Neu5Gc(a2-3)Gal(b1-4)Glc
Procedure, shortened: as §1

[47] = target: Neu5Gc(a2-3)Gal(b1-4)GlcNAc
Procedure, shortened: as §1

[48] = target: Neu5Gc(a2-3)Gal(b1-4)[Fuc(a1-3)]GlcNAc
Procedure, shortened: as §1

[49] = target: Neu5Gc(a2-6)Gal(b1-4)GlcNAc
Procedure, shortened: as §1

Neu5Gc(a2-6)GalNAc = target: Neu5Gc(a2-6)GalNAc
Procedure, shortened: as §1

[50] = target: Neu5Gc(b2-6)Gal(b1-4)GlcNAc
Procedure, shortened: as §1

B1: Surfactant Protein D (Human); Neck + Carbohydrate Recognition Domain (NCRD) (Homo sapiens) (protein)
chain: MLLFLLSALVLLTQPLGYLEAEMKTYSHRTMPSACTLVMCSSVESGLPGRDRDGREGPRGEKGDPGLPGAAGQAGMPGQAGPVGPKGDNGSVGEPGPKGDTGPSGPPGPPGVPGPAGREGALGKQGNIGPQGKPGPKGEAGPKGEVGAPGMQGSAGARGLAGPKGERGVPGERGVPGNTGAAGSAGAMGPQGSPGARGPPGLKGDKGIPGDKGAKGESGLPDVASLRQQVEALQGQVQHLQAAFSQYKKVELFPNGQSVGEKIFKTAQFVKPFTEAQLLCTQAGGQLASPRSAAENAALQQLVVAKNEAAFLSMTDSKTEGKFTYPTGESLVYSNWAPGEPNDDGGSEDCVEIFTNGKWNDVACGEKRLVVCEF
glycan array binding signal (z-score) [1]: -0.102 | glycan array binding signal (z-score) [2]: -0.429 | glycan array binding signal (z-score) [3]: -0.436 | glycan array binding signal (z-score) (Neu5Ac(a2-3)Gal(b1-4)Glc): -0.497 | glycan array binding signal (z-score) [4]: -0.407 | glycan array binding signal (z-score) [5]: -0.486 | glycan array binding signal (z-score) [6]: -0.494 | glycan array binding signal (z-score) [7]: -0.489 | glycan array binding signal (z-score) [8]: -0.506 | glycan array binding signal (z-score) [9]: -0.316 | glycan array binding signal (z-score) [10]: -0.447 | glycan array binding signal (z-score) [11]: -0.381 | glycan array binding signal (z-score) [12]: -0.53 | glycan array binding signal (z-score) [13]: -0.457 | glycan array binding signal (z-score) [14]: -0.401 | glycan array binding signal (z-score) [15]: -0.453 | glycan array binding signal (z-score) [16]: -0.342 | glycan array binding signal (z-score) [17]: -0.287 | glycan array binding signal (z-score) [18]: -0.365 | glycan array binding signal (z-score) [19]: -0.444 | glycan array binding signal (z-score) [20]: -0.311 | glycan array binding signal (z-score) [21]: -0.267 | glycan array binding signal (z-score) (Neu5Ac(a2-3)GalNAc): -0.398 | glycan array binding signal (z-score) [22]: -0.448 | glycan array binding signal (z-score) [23]: -0.494 | glycan array binding signal (z-score) [24]: -0.442 | glycan array binding signal (z-score) [25]: -0.444 | glycan array binding signal (z-score) (Neu5Ac(a2-6)Gal): -0.471 | glycan array binding signal (z-score) (Neu5Ac(a2-6)Gal(b1-4)Glc): -0.476 | glycan array binding signal (z-score) [26]: -0.412 | glycan array binding signal (z-score) [27]: -0.384 | glycan array binding signal (z-score) [28]: 0.257 | glycan array binding signal (z-score) [29]: -0.432 | glycan array binding signal (z-score) [30]: -0.432 | glycan array binding signal (z-score) [31]: -0.459 | glycan array binding signal (z-score) [32]: 2.21 | glycan array binding signal (z-score) [33]: -0.44 | glycan array binding signal (z-score) [34]: -0.107 | glycan array binding signal (z-score) [35]: -0.319 | glycan array binding signal (z-score) (Neu5Ac(a2-6)GalNAc): -0.425 | glycan array binding signal (z-score) [36]: -0.343 | glycan array binding signal (z-score) (Neu5Ac(a2-8)Neu5Ac): -0.416 | glycan array binding signal (z-score) [37]: -0.47 | glycan array binding signal (z-score) [38]: -0.378 | glycan array binding signal (z-score) [39]: -0.525 | glycan array binding signal (z-score) [40]: -0.49 | glycan array binding signal (z-score) [41]: -0.425 | glycan array binding signal (z-score) [42]: -0.467 | glycan array binding signal (z-score) [43]: -0.5 | glycan array binding signal (z-score) (Neu5Ac(b2-6)GalNAc): -0.487 | glycan array binding signal (z-score) [44]: -0.317 | glycan array binding signal (z-score) [45]: -0.452 | glycan array binding signal (z-score) [46]: -0.416 | glycan array binding signal (z-score) (Neu5Gc(a2-3)Gal(b1-4)Glc): -0.427 | glycan array binding signal (z-score) [47]: -0.502 | glycan array binding signal (z-score) [48]: -0.397 | glycan array binding signal (z-score) [49]: -0.589 | glycan array binding signal (z-score) (Neu5Gc(a2-6)GalNAc): -0.555 | glycan array binding signal (z-score) [50]: -0.54
